In the supplement of paper PMC10126150:
Values marked as one replicate rest on one cluster of the flow cell; about a third of the high ones do not repeat.

System: ATP
Assay: switch fluorescence ratio, 500 uM ATP over buffer (Cy3 cluster intensity, sum of 5 cycles each) (fold (ratio)); higher = stronger signal-on switching upon ATP binding; sequences stand for … in TCGTCGGCAGCGTCAGATGTGTATAAGAGACAGTTTTTTTTTTTTTTTTTTTTTTTTT…TC
Conditions: aptamer strand: ATP DNA aptamer (quencher-CACCTGGGGGAGTATTGCGGAGGAAGG + anchor), 100 nM annealed; ATP concentration: 500 uM; one replicate
In short: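 Clusters carrying Cy3-labelled switching strands on a modified Illumina MiSeq flow-cell were annealed to 100 nM quencher-labelled ATP aptamer and imaged in selection buffer. They were imaged again after 15 min with 500 uM ATP at 22 °C, over five buffer/ATP cycles with NaOH stripping and re-annealing in between. For each cluster, the fluorescence ratio is the summed Cy3 intensity of the target cycles divided by that of the buffer cycles, averaged per switch-domain sequence. Clusters outside 100-1000 RFU were left out.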
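Note: ATP exposure 15 min at 22 °C before imaging.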

AGATAAGAGT was tested, and the switch fluorescence ratio was 1.01.
GGGGTCACG was tested, and the switch fluorescence ratio was 0.999.
Sequence AGTGTAGTT has a switch fluorescence ratio of 0.991.
For CTGTCTTACT, the switch fluorescence ratio was 1.05.
For GATCTTGGTT, the switch fluorescence ratio was 1.04.
With GAATGGTTTA the switch fluorescence ratio was 0.979.
Sequence TCTTAGTTG has a switch fluorescence ratio of 0.975.
Sequence TCCGGCGTTG has a switch fluorescence ratio of 1.06.
For CGTTTAGTGA, the switch fluorescence ratio was 1.
ATTCTTATCA was tested, and the switch fluorescence ratio was 0.949.
In the case of TCGCATAGGG, the switch fluorescence ratio is reported as 1.25.
For TTCGTCTGAA, the switch fluorescence ratio was 0.965.
In the case of ACCCCCGAGT, the switch fluorescence ratio is reported as 1.35.
TGAGGTCGAT showed a switch fluorescence ratio of 1.
Work on TCGCACACGA yielded a switch fluorescence ratio of 1.7.
Work on TTAGCCGGAA yielded a switch fluorescence ratio of 1.03.
Sequence ATTGGAGAGT has a switch fluorescence ratio of 0.964.
CTCGGATGGA gave a switch fluorescence ratio of 1.04.
TTCTGACACA gave a switch fluorescence ratio of 1.09.
In the case of CCAACCAGGT, the switch fluorescence ratio is reported as 1.89.
TCGCAGCATG showed a switch fluorescence ratio of 1.64.
AAAGTGTGAT showed a switch fluorescence ratio of 0.948.
Sequence CTGGGGTAAC has a switch fluorescence ratio of 1.02.
In the case of TAATTGGT, the switch fluorescence ratio is reported as 0.982.
Sequence CTCAGCCCAA has a switch fluorescence ratio of 1.35.
Sequence CCGTGAGTGT has a switch fluorescence ratio of 1.1.
CAGGTGCGG was tested, and the switch fluorescence ratio was 1.14.
In the case of AATCTGTTTT, the switch fluorescence ratio is reported as 0.995.
For GGTAGCACAT, the switch fluorescence ratio was 1.04.
In the case of CCCTGGGATC, the switch fluorescence ratio is reported as 1.06.
With CATAAACTTT the switch fluorescence ratio was 1.02.
In the case of CAACAATGGT, the switch fluorescence ratio is reported as 1.2.
With CGGTACCGAC the switch fluorescence ratio was 0.975.
With GGTTGGCTTC the switch fluorescence ratio was 1.01.
TGGGGAGAT gave a switch fluorescence ratio of 1.
Sequence ACCCGGTTTT has a switch fluorescence ratio of 1.04.
With GTTATTAGAT the switch fluorescence ratio was 0.962.
GACGACCGCT gave a switch fluorescence ratio of 2.26.
For CAGAGTCGGA, the switch fluorescence ratio was 1.03.
In the case of TTTTCTTCAG, the switch fluorescence ratio is reported as 0.998.
Sequence GTATTTGAGG has a switch fluorescence ratio of 0.97.
CTCTAGTCAT was tested, and the switch fluorescence ratio was 1.06.
Work on GTCTGAGGGT yielded a switch fluorescence ratio of 0.935.
AGGTATACGC was tested, and the switch fluorescence ratio was 1.01.
Sequence TCTTTTTGAG has a switch fluorescence ratio of 0.959.
Work on TCTTTAAAT yielded a switch fluorescence ratio of 1.08.
ATTATGCGCT was tested, and the switch fluorescence ratio was 0.987.
With CCCCCACACA the switch fluorescence ratio was 1.29.
With ACGACTCGC the switch fluorescence ratio was 1.25.
Work on TTGCCATTTT yielded a switch fluorescence ratio of 1.
Work on TACTCAGGCG yielded a switch fluorescence ratio of 1.1.
For CCTAGACTAT, the switch fluorescence ratio was 0.966.
Sequence CAGAGGGTAT has a switch fluorescence ratio of 1.08.
Sequence TGTAGCGCTG has a switch fluorescence ratio of 1.01.
For AGCTACCGCT, the switch fluorescence ratio was 0.951.
For TAGGCACGGC, the switch fluorescence ratio was 0.984.
With TCTTTACTTA the switch fluorescence ratio was 1.04.
Work on AGTAAACTGG yielded a switch fluorescence ratio of 0.972.
With ACCCTCTCGC the switch fluorescence ratio was 1.79.
Sequence GCCTAATGAT has a switch fluorescence ratio of 0.962.
Work on ATAGGGCGCT yielded a switch fluorescence ratio of 1.03.
Work on ATATTTGCTC yielded a switch fluorescence ratio of 1.01.
Sequence TACGAGAAGA has a switch fluorescence ratio of 1.03.
CTATTACAGC was tested, and the switch fluorescence ratio was 1.09.
For GCGACGTAAG, the switch fluorescence ratio was 1.01.
With GTTATGTGAT the switch fluorescence ratio was 1.05.
Work on AGCTGTGAAG yielded a switch fluorescence ratio of 1.05.
Work on TTGATAGCGT yielded a switch fluorescence ratio of 0.997.
CAATGTTAAC gave a switch fluorescence ratio of 0.978.
AATACGGGCA was tested, and the switch fluorescence ratio was 1.06.
Sequence TTCATGGTGA has a switch fluorescence ratio of 1.01.
AAAGAGGGTC was tested, and the switch fluorescence ratio was 1.02.
GGTCGAACGC was tested, and the switch fluorescence ratio was 1.
GTTTTAACTG was tested, and the switch fluorescence ratio was 0.998.
In the case of TTGCAATAGC, the switch fluorescence ratio is reported as 1.74.
TCTGGAGATG was tested, and the switch fluorescence ratio was 1.05.
GGCTTAAATT was tested, and the switch fluorescence ratio was 0.988.
TTTACATTTC showed a switch fluorescence ratio of 1.08.
For TGAGTGCGGC, the switch fluorescence ratio was 0.8.
In the case of AGTTGGGATA, the switch fluorescence ratio is reported as 0.993.
CAAATTCCGT gave a switch fluorescence ratio of 0.992.
For TGGTTATAGA, the switch fluorescence ratio was 1.
Sequence AACGCATATG has a switch fluorescence ratio of 1.13.
CAATCGTG was tested, and the switch fluorescence ratio was 0.969.
Sequence AGGCTCTAGG has a switch fluorescence ratio of 1.02.
